Among all 310,000 compounds or so, about 2,200 (0.71%) showed an effect of 50% or more. Effects have a minus sign here. Some of the results follow.
molecular target: human ether-à-go-go-related gene (hERG) potassium channel (human, UniProt Q12809); experiment: primary screen, population patch clamp on CHO cells stably expressing hERG
Sequence (Q12809 whole entry, looked up): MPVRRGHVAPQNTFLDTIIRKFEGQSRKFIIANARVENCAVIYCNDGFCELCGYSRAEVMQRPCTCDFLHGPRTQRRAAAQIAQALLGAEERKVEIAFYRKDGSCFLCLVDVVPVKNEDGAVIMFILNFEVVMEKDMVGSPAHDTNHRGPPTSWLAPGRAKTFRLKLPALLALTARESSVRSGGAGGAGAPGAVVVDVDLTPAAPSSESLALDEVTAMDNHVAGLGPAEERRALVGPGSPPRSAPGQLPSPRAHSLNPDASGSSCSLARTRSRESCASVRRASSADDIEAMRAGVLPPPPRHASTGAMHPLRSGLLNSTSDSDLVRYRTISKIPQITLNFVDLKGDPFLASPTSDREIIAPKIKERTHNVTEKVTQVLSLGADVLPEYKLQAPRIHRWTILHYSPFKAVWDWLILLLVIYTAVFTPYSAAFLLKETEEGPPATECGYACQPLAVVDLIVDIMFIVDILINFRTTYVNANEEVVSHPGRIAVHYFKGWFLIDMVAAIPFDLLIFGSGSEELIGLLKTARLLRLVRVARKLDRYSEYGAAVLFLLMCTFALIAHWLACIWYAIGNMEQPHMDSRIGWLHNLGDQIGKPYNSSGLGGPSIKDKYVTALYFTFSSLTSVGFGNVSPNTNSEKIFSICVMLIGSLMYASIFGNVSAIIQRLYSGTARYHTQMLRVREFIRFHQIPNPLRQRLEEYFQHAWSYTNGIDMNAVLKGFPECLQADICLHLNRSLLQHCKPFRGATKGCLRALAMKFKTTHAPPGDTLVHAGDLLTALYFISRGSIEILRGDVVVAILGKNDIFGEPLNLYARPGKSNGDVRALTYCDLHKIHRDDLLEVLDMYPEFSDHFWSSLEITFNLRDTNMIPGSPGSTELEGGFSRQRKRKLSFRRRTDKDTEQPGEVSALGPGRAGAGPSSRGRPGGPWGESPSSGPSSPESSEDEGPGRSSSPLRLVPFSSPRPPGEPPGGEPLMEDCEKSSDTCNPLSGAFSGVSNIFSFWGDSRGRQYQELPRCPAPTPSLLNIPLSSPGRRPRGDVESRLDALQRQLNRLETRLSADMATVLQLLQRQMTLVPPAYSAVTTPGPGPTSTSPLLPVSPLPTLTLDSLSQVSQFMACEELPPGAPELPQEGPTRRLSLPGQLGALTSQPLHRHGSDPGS

Row | Structure (SMILES) | hERG current change (%, negative = inhibition) at 1uM
1 | [O-][n+]1onc2c1CCc1nnccc1-2 | 13.4%
2 | CC(C)(C)c1ccc(C(=O)NN2C(=O)CSC2=S)cc1 | 12.1%
3 | COC(=O)CSc1nc2nc(C)c(Br)cc2[nH]1 | 3.44%
4 | Cc1ccc(NC(=O)c2ccc(CSc3ccccn3)cc2)c(O)c1 | 15.7%
5 | Cc1ccc(CNC(=O)c2cc(=O)c3ccccc3o2)cc1 | 13.5%
6 | COC(=O)C1=C(c2ccccc2OCc2ccccc2)C[C@@H]2CC[C@H]1N2C(=O)NCCc1ccc(F)cc1 | 11.4%
7 | CCOc1ccc(CNc2ccc3c(c2)ncn3C)cc1 | -26.9%
8 | N#CCNc1ccc([N+](=O)[O-])cc1C#N | 12.6%
9 | CC1(C)CC(=O)C=C(c2cccc3c2Oc2ccccc2S3)C1 | 17.2%
10 | CC(C)n1cc(C(=O)NC2CC(C)(C)Cc3c2cnn3-c2ccccc2)cn1 (stereo not drawn) | 26.4%
11 | O=C(CCn1c(=O)oc2ccc(Cl)cc21)NCCCN1CCOCC1 | 12.1%
12 | C=CCSc1nnc(-c2ccc(Cl)cc2Cl)o1 | 7.32%
13 | O=C(CN1CC(=O)Oc2ccccc21)OCC(=O)c1cccc(Br)c1 | 17.3%
14 | CCN(CC)S(=O)(=O)c1ccc(N2CCOCC2)c(NC(=O)c2cccc3ccccc23)c1 | 16.9%
15 | CCOC(=O)/C(C#N)=C/c1ccc(OCC(=O)Nc2ccc(OC)cc2)c(OC)c1 | 16.1%
16 | Cc1sc2nc(CSc3nc4ccccc4c(=O)n3CCCN3CCOCC3)[nH]c(=O)c2c1C | 0.687%
17 | O=C(COC(=O)Cc1ccc(Br)cc1)NCC1CCCCC1 | 6.1%
18 | COC(=O)c1ccc(C2C3=C(Nc4nnnn42)c2ccccc2OC3)cc1 (stereo not drawn) | 8.93%
19 | CCOC(=O)C1CCN(C(=O)CN2C(=O)c3ccccc3S2(=O)=O)CC1 | 5.61%
20 | N#C/C(=C\c1ccccc1)C(=O)N1CCC(C(N)=O)CC1 | 15.5%

Row | Structure (SMILES) | hERG current change (%, negative = inhibition) at 1uM
21 | Cc1ccc(C)c(NC(=O)C(OC(=O)c2ccc(NC(=O)CC#N)cc2)c2ccccc2)c1 (stereo not drawn) | 4.96%
22 | Cc1cc(C(C)(C)C)oc1C(=O)N(CC(=O)NC1CCCC1)c1cccc(C(F)(F)F)c1 | 14.8%
23 | CC(=O)NCCCc1nc2ccccc2n1Cc1c(F)cccc1Cl | -10.6%
24 | NC(=O)C1CCN(C(=O)C(Cc2ccccc2)NC(=O)c2ccccc2)CC1 (stereo not drawn) | 13%
25 | O=C(Cn1[nH]c(=O)c2ccccc2c1=O)Nc1ccc(-c2nnc3n2CCCCC3)cc1 | 15.1%
26 | O=C1NC(c2cccs2)Nc2sc3c(c21)CCCC3 (stereo not drawn) | 8.51%
27 | CC(=O)Nc1ccc(-c2csc(NCc3ccccc3)n2)cc1 | 11.8%
28 | C=CCCCCCCCCc1nc(SCC(=O)O)n[nH]1 | 5.52%
29 | COc1ccc(NC(=O)C2CCN(C(=O)NC3CCCCC3)CC2)c(OC)c1 | -32.6%
30 | O=[N+]([O-])c1cc(Cl)ccc1Nc1ccccc1 | 9.54%
31 | Cc1cc(C)nc(SCCS(=O)(=O)Cc2ccccc2)n1 | 6.71%
32 | COc1ccc(C(=O)COC(=O)c2cc(=O)[nH]c3ccccc23)c(OC)c1 | 7.57%
33 | O=C1OCC2=C1C(c1ccccc1)CC(=O)N2c1cccc(F)c1 (stereo not drawn) | 7.95%
34 | COc1cccc(/C=N/Nc2nc(Nc3ccc([N+](=O)[O-])cc3)nc(N3CCCC3)n2)c1O | 15.3%
35 | CCc1ccccc1NC(=O)CN1C(=O)c2ccccc2S1(=O)=O | 15.1%
36 | COc1ccccc1C(=O)Nc1ccc(Br)c2cccnc12 | 17.5%
37 | CCOC(=O)c1cc(NC(=O)Cc2ccc(S(=O)(=O)N3CCOCC3)s2)cc(C(=O)OCC)c1 | 2.08%
38 | Cc1ccc(C(=O)N2CCCC(CCC(=O)N3CCN(c4ccccn4)CC3)C2)cc1C (stereo not drawn) | -1.03%
39 | CC(=O)C1C(c2ccc3ncccc3c2)NC(=O)NC1(O)C(F)(F)F (stereo not drawn) | 9.58%
40 | Cn1c(SCC(=O)N2CCCc3ccccc32)nnc1-c1cccs1 | -2.76%

Row | Structure (SMILES) | hERG current change (%, negative = inhibition) at 1uM
41 | C=CCn1cccc(C(=O)Nc2cc(OC)cc(OC)c2)c1=O | 0.758%
42 | Cc1ccc(NC(=O)CC2CCCC2)c(Br)c1 | 11.4%
43 | O=C(NC(=S)NCC1CCCO1)c1cccc([N+](=O)[O-])c1 (stereo not drawn) | 5.69%
44 | CCc1ccc(C(N)=S)cc1 | 10.2%
45 | Nc1ccc(OCCCc2c(N)nc(N)nc2N)cc1 | 9.01%
46 | CCCCC(C)n1[nH]c(=O)c2c(C)cc(C)nc21 (stereo not drawn) | 1.59%
47 | CCCSc1nc(O)c(C2OC(=O)c3c2ccc(OC)c3OC)c(=O)n1C (stereo not drawn) | 10%
48 | O=C1CCCC(O)=C1N=Nc1ccc(C(=O)O)cc1 | 9.28%
49 | Cc1ccccc1CSc1nnc(-c2cnccn2)n1C | 18%
50 | O=C(CC12CC3CC(CC(C3)C1)C2)NCc1ccco1 | 10.2%
51 | COCCNC(=O)C(OC(=O)c1cccs1)c1ccccc1 (stereo not drawn) | 13.5%
52 | O=C(CN1C(=O)NC2(CCCCC2)C1=O)N1CCN(C(=O)c2cccs2)CC1 | -1.87%
53 | Cc1cc(NC(=O)CCCC(=O)Nc2ccc(F)cc2)no1 | 2.13%
54 | CC(OC(=O)c1ccc(C(C)(C)C)cc1)C(=O)NC1CCCCC1C (stereo not drawn) | 17.2%
55 | CCc1ccc(-c2cnc3nc[nH]c(=O)c3n2)cc1 | 11.5%
56 | CN(C)c1ccc(C(=O)/C=C/c2ccccc2)cc1 | 8.84%
57 | CCOC(=O)c1c(CN(CC)CC)n(C)c2cc(Br)c(O)cc12.Cl | -45%
58 | COC(=O)c1cccnc1SCc1ccccc1 | -4.64%
59 | CCc1nnc(NC(=O)C2CCC2)s1 | 3.46%
60 | O=c1c2[nH]c3ccccc3c2ncn1Cc1ccco1 | 19.8%
